Data reported in the supplement of paper PMC10126150.
Values marked as one replicate rest on one cluster of the flow cell; about a third of the high ones do not repeat.

Tested on: ATP
Assay: switch fluorescence ratio, 500 uM ATP over buffer (Cy3 cluster intensity, sum of 5 cycles each) (fold (ratio)); higher = stronger signal-on switching upon ATP binding; sequences stand for … in TCGTCGGCAGCGTCAGATGTGTATAAGAGACAGTTTTTTTTTTTTTTTTTTTTTTTTT…TC
Conditions: aptamer strand: ATP DNA aptamer (quencher-CACCTGGGGGAGTATTGCGGAGGAAGG + anchor), 100 nM annealed; ATP concentration: 500 uM; one replicate
Procedure, shortened: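 Exposure to 500 uM ATP lasted 15 min at 22 °C before imaging, and a selection-buffer image was taken beforehand, for Cy3-labelled switching-strand clusters on a modified Illumina MiSeq flow-cell annealed to 100 nM quencher-labelled ATP aptamer. Five buffer/ATP cycles were run with NaOH stripping and re-annealing between them. The fluorescence ratio per cluster is summed target-cycle over summed buffer-cycle Cy3 intensity, averaged per switch-domain sequence. Clusters outside 100-1000 RFU were excluded.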

Sequence	switch fluorescence ratio
GTGGAGAC	1.08
CGTAGAGGGT	1.01
TGCCGAGCGG	1.02
GCCGAGGGTG	1.11
TCATTTCAGA	1.02
GCCGTATAGA	1.03
CGGACTTAGA	0.986
ATATGGAGGG	1.03
TCTTCAGATG	1.01
ATATGGCCGA	1.03
GTCAATAGGG	1.01
TCGCCATAAT	1.05
CAATCAACGT	0.961
CAGGTCTTTA	1.01
AAGATGATC	1.03
TCTCACCTTA	1.08
TACACCTTGC	2.27
ATAATAT	1.04
TAGATTGTCA	0.981
GGTTGCCTAA	1.01
AGTAAATGAG	1.05
GGATAACTGT	0.954
GATTGACAAC	0.977

Sequence	switch fluorescence ratio
TTGACCAGTT	0.971
CCAAGGTGCC	1.71
GCCCTTGAAA	1.02
GATCTTGGTG	0.992
CTCAAGGAGT	1.13
GGGGATGTTC	0.974
CTTTTCCATG	0.959
TGAGCGGGTC	0.995
TCGGCGAGGT	0.991
GAGAGCCGCG	1.02
CGCAGCTGGG	1.1
GCGCTGTACG	1.2
TTACGCGTGG	1.06
TAGGGGTTAC	0.986
CACCCTAGCT	1.08
GATAAGTCAC	1.13
CTATAATCAC	1.05
TTACGTTGCA	0.993
TCTGTTTTG	1.01
GGGCGTGAGT	1.04
AAGTTGGTGC	0.997
CACGGCTGCC	1.03
TGGACATATA	1.03

Sequence	switch fluorescence ratio
GGGTAAGGCC	0.958
AGCGCTTTAC	2.63
GCTTGGCATA	0.997
GTGTGCCGAG	0.964
CATACAGGTT	1.04
CAGCTCGCAG	1.31
CCCCCTTATT	0.961
AGTTCTACAC	0.964
ATGGTATGTA	1
ACGGCCTTTG	1.08
CAAACCTAGG	1.03
TGTTTTACA	1.06
GTTGCTTTCG	0.962
CCGGATTGGT	0.993
GCCTGGGTCG	0.976
TGTCCAAGAC	1.08
ACTTCTATTC	1.03
CCGCTATGAG	3.07
TAGAGAGTAG	0.965
GGTCAGCGCG	0.979
ACCAAAGGTA	0.994
GATTGGTTGG	0.987
GGGCAATGTG	0.995

Sequence	switch fluorescence ratio
GGTTCATGAC	1.03
GAAAAAAGA	0.992
TATGGGCAGA	1.02
TTTGATAGCA	1.07
ACTCAGTTAG	1.08
TCCGAGAAAT	3.64
TTTTAGAAAC	1.02
AGATCGCATT	1.11
CAAGTTTTTC	0.977
TAGTGAACGT	1.02
GTGAACCGGG	1.06
TAATAAGGTT	0.999
AAAACCAGAT	0.995
TCGCGGGATC	0.975
ATATCACGGG	1.1
AGGAAATCTG	0.987
TTGACCGGGC	0.919
GATATTGGAG	1
TCTCCGGCCA	2.9
GGCGAAGCTC	0.987
CATGTCCTGA	0.994
GATTGTAAGG	0.989
ACTATCACTC	1.21

Sequence	switch fluorescence ratio
CTCTGGCGTA	1.01
GCTGTGTCCT	0.985
CCGTTGAGGC	1.29
ATACCGGTGG	1.27
AGGAGCGCCG	0.944
CGGCAGATCA	0.978
CGAAATTGGG	1.03
TATCGTAAGA	1.03
GGTGCTCGCT	1.01
TAGCGGATTG	1.02
TGCAGTACTA	1.83
ACCAACGGAC	1.37
CAGGCGCCGC	1.07
CTGCATTCTT	1.09
TAACCTTTGC	1.31
CCAGGGGATG	1.06
ACTTTAACGA	1.13
TACACAGTAG	1.08
CAATCAAGTG	1
TCAGAACTGG	1.02
ATTAGGCTTC	0.997
GCGTGTTGAG	1.02
TTAAGAGAGA	1.02

Sequence	switch fluorescence ratio
CGCATCGG	1.1
AGGGGGGCAT	1.02
TCGTATTAGT	1.05
TGTGATGCAT	1.01
CATTCTGT	0.95
GACCTAATGT	1.15
AGCCAGGGAA	1.03
CTCACGCCCT	1.31
GTGGAGTGGA	0.992
GAAGCGTAAC	2.28
ATGGGGAGCC	1.01
AAGTCCATGA	0.953
GGCCGAAAGA	0.972
TGGTGAAAAC	1.02
TGCGTGAGGA	1.02
ATGGACAAGC	1.05
GGTAGGGTAG	1.02
GCACGGTGTC	1.07
GCCTCAGGTT	1.26
AAGTGACGGT	1.05
CATTTCTCCA	1.6
TTATGTTCCT	0.989
AGTTAATACC	1.04

Sequence	switch fluorescence ratio
GGATTGCAGT	1.01
GAGGCCTACC	0.959
AGATAACGTT	1.01
CGTCATATCA	1.01
CGACTCTTTC	0.997
AAAATGTCTT	0.959
CCTACATACA	1.45
GACCGGCGTG	1.01
TATCTCGGTG	1.03
TCTGGCCCAG	0.958
ACATGAGTTT	0.992
ACGTTAGCGG	1.03
TTATAAGGGT	0.986
GCTCGCACTG	1.02
AGGCTTGTCG	1.03
CTTCTTAACG	1.01
TGCGCTAAGC	0.973
CCAAACGTTA	1.16
CGTTGGGCTA	1.09
